In PubChem BioAssay AID686970 (National Center for Advancing Translational Sciences (NCATS), 2013):
The campaign covered roughly 360,000 compounds. About 6,000 (1.7%) were called active. Inconclusive means that the source gave no clear call. Such entries were picked first, then a sample of the others. The call rests on the fitted dose curve; in most records, active means well fitted cell-killing curve with a large enough effect; inconclusive means small, poorly fitted or top-dose-only effect, or effect the other way; inactive means flat fitted curve, though single readings scatter. Potencies of inconclusive entries are left out as doubtful fits.
Potency means the concentration at half of the fitted maximal effect; tags describe the fitted curve by direction and shape.

Assay: qHTS for induction of synthetic lethality in tumor cells producing 2HG: qHTS for the HT-1080-NT fibrosarcoma cell line;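 further: NT is the 2HG producing partner of a matched IDH1 knockdown line; nearly all actives have a fitted effect of over 55% in size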;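 on activity, negative = less viability: 0% = DMSO-treated cells and -100% = media-only wells without cells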
Conditions: HT-1080-NT fibrosarcoma viability, CellTiter-Glo ATP luminescence, 48 h; activity, negative = less viability: at 46.1 µM (top of the series) unless noted
Outline: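 Toxicity toward the 2HG-producing NT line was scored as %Activity, normalised to DMSO and no-cell wells, from CellTiter-Glo luminescence after 48 hours' treatment.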
With `COc1ccc(S(=O)(=O)NCc2ccccn2)cc1NC(=O)c1ccc(Cl)cc1` the Potency was inconclusive [cytotoxic, single point].
In the case of `CC1(C(=O)NS(=O)(=O)C2CC2)CCN(C(=O)C2(c3ccc(Cl)cc3)CCCC2)C1` (configuration not stated), the Potency is reported as inconclusive [rising, single point].
For `FC(F)Oc1ccc(-c2c[n+]3c(n2-c2ccccc2)CCCCC3)cc1`, the Potency was inconclusive [cytotoxic, single point].
In the case of `CCOC(=O)C(NC(=O)CCl)(Nc1sc(C)c(CC)c1C#N)C(F)(F)F` (configuration not stated), the Potency is reported as inconclusive [cytotoxic, single point].
In the case of `COc1ccc(Nc2oc(-c3ccc(Cl)cc3)nc2C#N)cc1`, the Potency is reported as inconclusive [cytotoxic, single point].
For `COc1ccc(C(=O)NC(=S)Nc2ccc(CN3CCCCC3)cc2)cc1Cl`, the Potency was inconclusive [cytotoxic, single point].
For `CCOC(=O)c1c(NC(=O)Cc2cccs2)sc2c1CCCC2`, the “activity, negative = less viability” value was inactive: 4.53%.
For `Cc1ccc(NC(=O)CSc2nnc(Cc3csc(C)n3)o2)cc1`, the “activity, negative = less viability” value was inactive: -6.82%.
With `S=C(NNc1cccc(Cl)c1)NC1CCCCC1` the Potency was inconclusive [cytotoxic, partial curve].
For `CC1CCCN(CCCNC(=O)c2ccc3c(c2)N(Cc2ccccc2F)C(=O)c2ccccc2S3(=O)=O)C1` (configuration not stated), the Potency was active: 25.9 µM.
In the case of `Oc1c(CN2CCCCC2)cc(Br)c2cccnc12`, the Potency is reported as inconclusive [cytotoxic, partial curve].
In the case of `CCS(=O)(=O)c1nnnn1-c1ccccc1S(C)(=O)=O`, the Potency is reported as active: 17.8 µM.
With `CC(C)C(NC(=S)Nc1ccccc1)C(=O)O` (configuration not stated) the “activity, negative = less viability” value was inactive: 14.2%.
In the case of `O=C(OCc1ccccc1)N1CCOCCOCCN(C(=O)OCc2ccccc2)CCOCCOCC1`, the Potency is reported as inconclusive [cytotoxic, partial curve].
With `CC(Sc1nc2ccccc2c(=O)n1C)C(=O)Nc1ccc2c(c1)OCCO2` (configuration not stated) the Potency was inconclusive [cytotoxic, single point].
For `CCc1ccc(/C=C2\SC(=S)N(CCC(=O)N3CCN(C)CC3)C2=O)cc1`, the “activity, negative = less viability” value was inactive: -3.6%.
With `COc1cccc(Cn2cnc(-c3ccccc3OC)c2-c2cccnc2)c1` the Potency was inconclusive [cytotoxic, single point].
In the case of `O=C(NNc1ccc([N+](=O)[O-])cc1)C12CC3CC(CC(C3)C1)C2`, the Potency is reported as inconclusive [cytotoxic, single point].
For `N=C1C(c2nc(-c3ccc(Cl)cc3)cs2)=C(O)CN1NC(=O)c1ccc(O)cc1`, the “activity, negative = less viability” value was inactive: 1.47%.
With `CC(Cc1ccccn1)NC(=O)c1ccc(OC2CCN(CCc3ccccc3)CC2)cc1` (configuration not stated) the “activity, negative = less viability” value was inactive: -12%.
For `COc1cc(CNCc2ccccc2)c(Br)cc1OC1CCCC1`, the Potency was inconclusive [cytotoxic, single point].
For `COc1cc(N(CCCn2cnc3c(SC)ncnc32)CCCn2cnc3c(SC)ncnc32)cc(OC)c1OC`, the “activity, negative = less viability” value was inactive: -0.933%.
For `O=C(NNc1ccc([N+](=O)[O-])cc1)c1ccccc1F`, the activity, negative = less viability was inconclusive: -32.6% [cytotoxic].
With `O=C(CC(Sc1ccccc1)c1cccs1)c1ccco1` (configuration not stated) the Potency was inconclusive [cytotoxic, single point].
For `Cc1ccc2[nH]c3c(c2c1)CN(C(=O)CN1CCN(Cc2ccc4c(c2)OCO4)CC1)CC3`, the Potency was active: 20.6 µM.
For `CC(C)(C)n1nnnc1C(c1ccc(C(F)(F)F)cc1)N(Cc1ccccc1)Cc1ccco1` (configuration not stated), the Potency was inconclusive [cytotoxic, single point].
In the case of `Cc1ccc(S(=O)(=O)NCCNC(=O)c2cc(OCC(F)(F)F)ccc2OCC(F)(F)F)cc1`, the “activity, negative = less viability” value is reported as inactive: -16.8%.
For `COc1ccccc1NC(=O)C1CCCN(C(=O)Nc2ccc(F)cc2)C1` (configuration not stated), the “activity, negative = less viability” value was inactive: -10.6%.
In the case of `Cc1cc(-c2ccc(C)c(S(=O)(=O)N3CCN(c4ccccn4)CC3)c2)on1`, the Potency is reported as inconclusive [cytotoxic, single point].
With `COc1ccc(C)cc1NC(=O)CSc1ccc(-c2ccco2)nn1` the “activity, negative = less viability” value was inactive: 0.488%.
With `C/C(=N\NC(=O)c1ccccc1O)c1ccc(Br)s1` the Potency was inconclusive [cytotoxic, single point].
In the case of `Cc1ccc2c(NCc3ccco3)nc(NC(C)C)nc2c1`, the Potency is reported as active: 25.9 µM.
With `N/C(Cc1ccc(Cl)cc1)=N\OC(=O)CCc1ccccc1` the “activity, negative = less viability” value was inactive: 4.68%.
With `O=C(NCCOc1cccc(Oc2ccccc2)c1)c1cc(-n2cnnc2)ccc1Cl` the “activity, negative = less viability” value was inactive: -14.5%.
For `Cc1cc(C)cc(NC(=O)Cn2nnc(C(=O)NCc3ccc4c(c3)OCO4)c2N)c1`, the Potency was active: 18.4 µM.
For `CCOC(=O)C1CCCN(S(=O)(=O)c2ccc(F)c(C(=O)Nc3ccc(F)c(F)c3)c2)C1` (configuration not stated), the Potency was inconclusive [cytotoxic, single point].
For `CCOC(=O)N1CCN(S(=O)(=O)c2ccc(C(=O)NNc3nc4c(C)cc(C)cc4s3)cc2)CC1`, the Potency was inconclusive [cytotoxic, partial curve].
